According to PubChem BioAssay AID328 (DTP/NCI, 2004):
Toxic doses and inconclusive results are not listed. A number of entries come with more than one value. Only these are listed. There may be further records. The values listed for one entry are repeated measurements (runs, samples, wells, individuals or studies). Starred links: 1 amine or outer side, 2 acyl side, 3 side chain; linkers in the order of their positions; H or OH if unused. Positions of bridges follow the written chain, without caps; N, C: chain ends. Non-standard residues stand in square brackets, D forms with d. Residues, ends and D or L forms follow the SMILES beside them. Chains are numbered I, II in the order given. Actinocin(9to1) = Cc1c2oc3c(C)ccc(C(=O)[*:1])c3nc-2c(C(=O)[*:2])c(N)c1=O; NMeV = CN[CH](C(=O)O)C(C)C; Sar = CNCC(=O)O

Legend:
[1] = test system: BDF1 mice, P388 leukemia ip; test: NCI In Vivo Anticancer Drug Screen. Data for tumor model P388 Leukemia (intraperitoneal) in B6D2F1 (BDF1) mice; conditions: endpoint: mean survival time; dose: 0.75 mg/kg/injection; schedule: Q01DX010 (ip); vehicle: saline; higher = longer survival
How it was run: (§1)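 Each value expresses how treatment altered survival: treated-mouse outcome over vehicle-mouse outcome, both groups bearing the transplanted tumour.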

[2] = test system: BDF1 mice, P388 leukemia ip, median survival T/C; test: as above; conditions: endpoint: median survival time; dose: 375.0 micrograms/kg/injection; schedule: Q04DX003 (ip); vehicle: saline + alcohol; higher = longer survival
How it was run: as §1

CCC1(O)CC(OC2CC(N(C)C)C(OC3CC4OC5CC(=O)C(C)OC5OC4C(C)O3)C(C)O2)c2c(cc3c(c2O)C(=O)c2c(O)ccc(O)c2C3=O)C1C(=O)OC (configuration not stated)
T/C [1]: 86 % of control and 188 % of control

Cc1c2oc3c(C)ccc(C(=O)NC4C(=O)NC(C(C)C)C(=O)N(C)CC(=O)N(C)CC(=O)N(C)C(C(C)C)C(=O)OC4C)c3nc-2c(C(=O)NC2C(=O)NC(C(C)C)C(=O)N(C)CC(=O)N(C)CC(=O)N(C)C(C(C)C)C(=O)OC2C)c(N)c1=O (configuration not stated) (I: TV[Sar][Sar][NMeV] / II: TV[Sar][Sar][NMeV]; ester I:1-I:C, II:1-II:C; linker I:N-II:N via Actinocin(9to1); configuration not given here)
T/C [2]: 117 % of control and 166 % of control
